In PMC4274898:
No constants are given. Whether binding was seen depends on the method and setting. Some binding calls cover weakened binding; strength is not graded here.

By UniProt entry, the sequences of proteins in these tests, tags left out.
UniProt Q38832: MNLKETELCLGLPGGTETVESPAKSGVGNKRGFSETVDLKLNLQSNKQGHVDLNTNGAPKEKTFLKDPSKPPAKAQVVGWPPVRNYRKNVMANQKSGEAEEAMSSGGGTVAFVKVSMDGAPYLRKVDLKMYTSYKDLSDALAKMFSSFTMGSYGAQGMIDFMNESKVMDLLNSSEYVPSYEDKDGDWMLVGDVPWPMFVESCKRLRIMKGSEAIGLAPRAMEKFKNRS
UniProt Q38825: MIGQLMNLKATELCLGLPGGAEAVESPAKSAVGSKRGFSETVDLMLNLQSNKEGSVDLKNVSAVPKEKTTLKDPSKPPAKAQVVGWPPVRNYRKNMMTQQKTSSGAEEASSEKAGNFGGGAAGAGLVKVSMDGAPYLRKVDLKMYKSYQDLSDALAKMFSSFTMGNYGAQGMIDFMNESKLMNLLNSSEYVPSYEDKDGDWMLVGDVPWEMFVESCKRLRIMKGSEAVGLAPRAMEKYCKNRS
UniProt P93830: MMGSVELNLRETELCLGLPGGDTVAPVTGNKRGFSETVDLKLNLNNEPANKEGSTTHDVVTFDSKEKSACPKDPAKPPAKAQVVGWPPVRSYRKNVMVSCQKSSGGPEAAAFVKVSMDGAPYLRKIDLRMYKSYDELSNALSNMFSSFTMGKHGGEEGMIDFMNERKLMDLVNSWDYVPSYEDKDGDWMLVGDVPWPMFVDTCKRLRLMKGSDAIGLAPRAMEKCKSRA

Tests used:
Test in all cases: two-hybrid; S. cerevisiae AH109 co-transformed with pGBKT7-ARF (bait) and pGADT7-Aux/IAA (prey); growth on SD/-Ade-His-Leu-Trp against SD/-Leu/-Trp; at least 10 independent colonies; serial dilutions for strength
[1] = target: T1, ARF5 (Arabidopsis thaliana) (UniProt P93024)
T1 sequence: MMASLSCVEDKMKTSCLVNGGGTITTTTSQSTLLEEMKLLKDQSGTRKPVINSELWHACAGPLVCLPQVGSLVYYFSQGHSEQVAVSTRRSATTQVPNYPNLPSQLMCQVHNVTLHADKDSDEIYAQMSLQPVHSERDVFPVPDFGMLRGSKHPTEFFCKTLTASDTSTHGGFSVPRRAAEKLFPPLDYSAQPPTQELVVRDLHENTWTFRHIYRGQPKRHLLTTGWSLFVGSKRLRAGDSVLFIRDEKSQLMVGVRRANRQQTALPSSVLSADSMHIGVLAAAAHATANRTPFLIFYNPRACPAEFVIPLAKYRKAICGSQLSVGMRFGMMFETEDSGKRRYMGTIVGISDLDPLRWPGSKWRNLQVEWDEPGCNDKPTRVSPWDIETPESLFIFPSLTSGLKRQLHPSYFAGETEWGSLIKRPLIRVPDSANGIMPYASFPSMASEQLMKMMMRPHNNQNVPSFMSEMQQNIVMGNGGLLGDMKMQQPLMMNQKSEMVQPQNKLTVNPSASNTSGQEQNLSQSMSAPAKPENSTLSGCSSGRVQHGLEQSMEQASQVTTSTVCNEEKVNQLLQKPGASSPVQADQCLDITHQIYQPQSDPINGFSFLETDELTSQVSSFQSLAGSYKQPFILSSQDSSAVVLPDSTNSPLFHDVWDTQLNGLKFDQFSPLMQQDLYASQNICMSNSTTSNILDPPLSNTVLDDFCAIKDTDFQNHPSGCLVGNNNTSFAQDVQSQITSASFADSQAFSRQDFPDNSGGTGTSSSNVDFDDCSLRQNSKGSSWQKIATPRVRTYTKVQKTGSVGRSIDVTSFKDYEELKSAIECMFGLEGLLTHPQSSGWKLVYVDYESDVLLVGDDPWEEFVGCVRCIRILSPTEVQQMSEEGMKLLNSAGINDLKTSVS

[2] = target: T2, ARF19 (Arabidopsis thaliana) (UniProt Q8RYC8)
T2 sequence: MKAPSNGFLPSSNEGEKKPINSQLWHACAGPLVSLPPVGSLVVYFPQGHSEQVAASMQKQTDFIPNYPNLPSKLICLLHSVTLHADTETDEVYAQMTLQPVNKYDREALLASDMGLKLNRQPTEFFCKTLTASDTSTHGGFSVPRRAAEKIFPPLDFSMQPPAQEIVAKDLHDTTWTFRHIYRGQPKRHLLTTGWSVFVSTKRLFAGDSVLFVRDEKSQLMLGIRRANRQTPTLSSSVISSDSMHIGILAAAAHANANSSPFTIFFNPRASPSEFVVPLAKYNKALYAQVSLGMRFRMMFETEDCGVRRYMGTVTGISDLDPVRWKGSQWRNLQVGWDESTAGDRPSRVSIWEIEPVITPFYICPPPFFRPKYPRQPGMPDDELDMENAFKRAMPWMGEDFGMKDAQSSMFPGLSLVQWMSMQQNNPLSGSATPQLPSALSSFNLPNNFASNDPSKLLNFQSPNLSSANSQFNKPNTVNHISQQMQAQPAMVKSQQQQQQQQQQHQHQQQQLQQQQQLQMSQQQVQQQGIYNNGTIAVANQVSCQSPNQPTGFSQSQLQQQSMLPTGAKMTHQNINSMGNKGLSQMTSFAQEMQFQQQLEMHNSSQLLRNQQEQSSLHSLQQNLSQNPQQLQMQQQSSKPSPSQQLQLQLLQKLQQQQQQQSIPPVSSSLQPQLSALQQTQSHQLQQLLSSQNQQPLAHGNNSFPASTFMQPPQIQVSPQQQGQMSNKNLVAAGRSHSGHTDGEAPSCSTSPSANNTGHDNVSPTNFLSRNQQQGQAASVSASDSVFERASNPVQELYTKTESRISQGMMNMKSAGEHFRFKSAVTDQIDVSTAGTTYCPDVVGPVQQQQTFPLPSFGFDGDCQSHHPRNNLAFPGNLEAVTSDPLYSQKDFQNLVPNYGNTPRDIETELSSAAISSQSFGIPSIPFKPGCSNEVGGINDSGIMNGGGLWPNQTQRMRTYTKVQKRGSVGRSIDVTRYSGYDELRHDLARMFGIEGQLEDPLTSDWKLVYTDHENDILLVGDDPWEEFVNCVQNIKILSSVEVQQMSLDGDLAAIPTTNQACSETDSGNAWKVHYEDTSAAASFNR

[3] = target: T3, ARF8 (Arabidopsis thaliana) (UniProt Q9FGV1)
T3 sequence: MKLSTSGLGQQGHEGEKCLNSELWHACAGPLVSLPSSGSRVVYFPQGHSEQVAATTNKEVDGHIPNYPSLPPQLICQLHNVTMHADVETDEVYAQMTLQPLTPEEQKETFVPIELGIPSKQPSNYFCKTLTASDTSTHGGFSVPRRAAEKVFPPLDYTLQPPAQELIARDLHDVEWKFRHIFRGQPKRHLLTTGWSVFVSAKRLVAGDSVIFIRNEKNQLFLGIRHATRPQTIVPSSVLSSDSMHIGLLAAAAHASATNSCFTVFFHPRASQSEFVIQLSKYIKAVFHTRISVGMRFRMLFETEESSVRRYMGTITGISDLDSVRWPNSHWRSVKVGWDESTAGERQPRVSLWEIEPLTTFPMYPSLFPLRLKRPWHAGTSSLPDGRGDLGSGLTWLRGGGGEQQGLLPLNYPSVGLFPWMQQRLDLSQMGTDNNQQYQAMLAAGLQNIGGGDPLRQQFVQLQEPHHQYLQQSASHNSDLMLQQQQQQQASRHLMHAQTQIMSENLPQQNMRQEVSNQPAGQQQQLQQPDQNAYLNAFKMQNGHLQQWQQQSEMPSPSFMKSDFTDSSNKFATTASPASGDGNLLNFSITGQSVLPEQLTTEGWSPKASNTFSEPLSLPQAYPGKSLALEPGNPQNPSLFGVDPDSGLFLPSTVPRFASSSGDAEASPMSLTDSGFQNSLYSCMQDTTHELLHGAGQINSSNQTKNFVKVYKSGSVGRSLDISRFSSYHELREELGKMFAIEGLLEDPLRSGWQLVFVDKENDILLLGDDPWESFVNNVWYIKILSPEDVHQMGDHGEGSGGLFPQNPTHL

Measured: binding

Aux/IAA14 (from UniProt Q38832 1-228)
binds: all assays above

Aux/IAA7 (from UniProt Q38825 1-243)
binds: all assays above

Aux/IAA17 (from UniProt P93830 1-229)
binds: all assays above
